Experimental findings from the supplement of paper PMC3334620 are described below.

In all, about 33,000 sequences were measured (“E-score (-0.5 to 0.5)”: median about -0.035, highest 2% from about 0.34 on). The list shows a part of the results.

The assay addresses T1, Mot3 (UniProt P54785).
T1 sequence: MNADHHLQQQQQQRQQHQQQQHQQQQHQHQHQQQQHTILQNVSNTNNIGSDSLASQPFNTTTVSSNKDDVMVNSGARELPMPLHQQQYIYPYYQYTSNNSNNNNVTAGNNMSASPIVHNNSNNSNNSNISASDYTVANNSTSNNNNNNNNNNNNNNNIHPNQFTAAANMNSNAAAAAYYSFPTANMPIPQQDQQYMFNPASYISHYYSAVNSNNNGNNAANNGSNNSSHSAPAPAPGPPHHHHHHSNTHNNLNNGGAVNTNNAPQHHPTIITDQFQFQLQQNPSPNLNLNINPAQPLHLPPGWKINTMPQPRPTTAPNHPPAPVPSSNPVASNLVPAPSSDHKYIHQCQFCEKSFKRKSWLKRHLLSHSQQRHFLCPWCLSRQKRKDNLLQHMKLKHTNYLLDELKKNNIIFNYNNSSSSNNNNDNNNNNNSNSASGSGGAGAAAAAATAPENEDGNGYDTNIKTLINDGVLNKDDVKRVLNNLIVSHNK
As to the kind of experiment: PBM E-score (8-mer binding enrichment) (E-score (-0.5 to 0.5)); higher = stronger / more preferred TF binding; most listed sequences are background and not binding sites. Conditions: protein concentration: 200 nM; construct: GST-full length. In outline:
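Masliner-normalised scans of fluorescent anti-GST signal were the basis for scoring. That signal came from GST-tagged yeast transcription factors applied at about 100-200 nM to double-stranded universal all-10-mer Agilent arrays on fresh or once-stripped slides. Each ungapped eight-base word, pooled with its reverse complement, received an E-score from the Universal PBM Analysis Suite.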
Turning to CATTGTGG, the “PBM E-score” value was -0.0175. Turning to ATTCATTA, the “PBM E-score” value turned out to be 0.0801.

On to TCCCAGCA, for which the “PBM E-score” value was -0.116. In the case of CATCGTTA it was -0.109; in that of GACCTCAC, -0.243; in that of AAGCTGTC, -0.153. Take GAGTCTGC: the “PBM E-score” value is -0.186. For GAACGTAA the value was 0.214; for CCCTAACA, 0.129. As to GTACTGGA, the “PBM E-score” value stood at 0.211. In the case of ACGTTGGA it was 0.0278. In the case of AGTCCCGC it was -0.222; in that of CAGCCTTC, -0.278.

With AGAACGTC, the “PBM E-score” value was -0.115. For GATTCTCA the value was -0.0813; for CCAAGTAC, 0.00922; for AACGAGAT, -0.107. For AGGCCCTC the value was -0.0522; for AGGCATCG, 0.404; for AGGGACGC, -0.099. On to ACCTGCGC, for which the “PBM E-score” value was 0.117. For GCATTCAA the value was -0.138; for CCCTAATA, -0.188. In the case of GCTGTTGA it was 0.107; in that of CGATCACA, 0.128. As for GAGACATA, the “PBM E-score” value was determined as 0.108. For GTGTGCAA the value was 0.128; for ACGATGAG, 0.104; for ACTAAAAA, 0.0245. For the sequence GCCTTTTA, the “PBM E-score” value came to 0.335. In the case of GATCTTCA it was -0.118; in that of AATTAAGA, 0.0919; in that of GAGACCAA, -0.17. For CAATGACA the value was 0.135. In the case of CTACAGCA it was 0.0731; in that of ACTAGTAC, 0.00048; in that of CTAGACAG, -0.169.

In the case of CGTTCTAG, the “PBM E-score” value worked out at 0.0347. In the case of CTCGAAAG it was -0.057. For ACTCCCAA the value was -0.0157. In the case of CATTAGAA, the “PBM E-score” value is -0.0351. For ACTTACTC, the “PBM E-score” value was found to be 0.0234.

As for ACTATGAT, the “PBM E-score” value is -0.0665. For ACATTAGC the value was 0.109; for GCACGGCC, 0.0373. Take ATGGGACA: the “PBM E-score” value was -0.152.

Regarding AATGATCG, the “PBM E-score” value is -0.127. Take ATTTATAG: the “PBM E-score” value is 0.00853.

Regarding ACCACGAG, the “PBM E-score” value was -0.197. On to AGCTTGTC, for which the “PBM E-score” value is -0.0925. In the case of CGCCTCGC it was -0.229; in that of CGCCCGTA, -0.0749.

CGGACGCA: the “PBM E-score” value is -0.111. For ATATTACG the value was 0.296; for CCACCCCA, 0.00669. In the case of AATGGTAA it was 0.0597; in that of CAAACTGA, -0.0656; in that of CGCCTGAG, -0.133. In the case of GAAATAAA it was 0.0179; in that of ACACACCT, 0.209. With CGACCGCG, the “PBM E-score” value was -0.191.

In the case of CATAAGTA, the “PBM E-score” value was -0.0467. For AAGAAACA the value was 0.19; for TACCACTA, -0.0713. On to GGGCACCC, for which the “PBM E-score” value was -0.0287. Consider ACCAGTAT, for which the “PBM E-score” value was -0.154. Take GAGGCCAA: the “PBM E-score” value was -0.166. Consider CCGATTAC, for which the “PBM E-score” value stood at 0.163. Take AATTGAGA: the “PBM E-score” value was -0.0846.

As for CAGGACAG, the “PBM E-score” value was -0.199. For ATCAAATC the value was -0.0985; for CGGGAGGA, -0.143. Take AGGGCAGG: the “PBM E-score” value came out at 0.0389.

Regarding AGAATACA, the “PBM E-score” value turned out to be 0.278. For GATGGCGA, the “PBM E-score” value is -0.102. For CGTTTCAA the value was 0.0554; for ATTGGATA, -0.143; for TGCTAACA, 0.099. For AATATCGT, the “PBM E-score” value was 0.149. In the case of GTAGACCA it was 0.00217.

As to AAATTTCA, the “PBM E-score” value amounted to 0.0517. In the case of ACTGGGTA it was -0.189. In the case of ATCTTATG it was -0.0202; in that of ACCTGGCA, -2e-05; in that of ACAACATC, 0.195. With TATATTGA, the “PBM E-score” value is -0.0227.
